# Assay results reported in the supplement of paper PMC11417369.
# The other results are listed elsewhere or left out.
# Test system: PF3D7_0420300 AP2 domain 1 (GST-tagged)
# Assay: gcPBM binding intensity (ln(normalized median fluorescence intensity)); higher = stronger DNA binding
# In short: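 For binding intensity, the highest Masliner-normalised natural-log median intensity across replicate spots of either probe orientation was taken. Protein bound to the array was stained with Alexa488 anti-GST antibody and scanned at 488 nm. The protein, GST-tagged P. falciparum DNA-binding domains from E. coli at about 25 μg on average, had been applied for 1 h to an Agilent 4 × 180k array of primer-extended double-stranded 36-bp intergenic genomic probes and negative controls.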
row,Sequence,gcPBM binding intensity (ln)
1,AATTATATAATCTTATAACATAATATAATAACATTT [CACACA_negctrl_site187],9.09
2,ATAATGTTTCTTTCAACACACAAAAAATGAACACAT [CACACA_site1552],9.47
3,AAAAAAGAAAAAAGGACACACATAAATATACTCACG [CACACA_site2904],9.71
4,CATACATACGGACACACACACATATATATATATATA [CACACA_site5598],9.97
5,TATATAAGCGCATGCACACGCAAAGGTATATAAATA [CACACA_site622],9.29
6,AAAAAAAAAAAATAGACCTCCTAAGCAAAAGAAAAA [GTGCAC_negctrl_site634],9.38
7,TAAGTTTATTGAAATTGTACAAACATAAATGTAAAA [XGTACX_site162],9.11
8,TTATATTTTTTTTTTTCACACACATTTATATTGTAT [CACACA_site9025],9.77
9,TATACTAAGAAGTATTTACACACCAACAAGGCGAAA [CACACA_site8963],9.42
10,TTATTTTCATATAGGTGTACATAAAAATATTCTTAT [XGTACX_site8861],9.09
11,AAATTAAGTATATATTGTACACATAATATGATTGTA [XGTACX_site3083],9.22
12,ATGTTCATTATATGCACACATATATATAAATGTAAT [CACACA_site2908],9.31
13,TATCATAAAAAATATACACACAAAGGATATATATAT [CACACA_site1571],9.6
14,TTAATTAGAAATCATACACACATATAAATAAATATA [CACACA_site6225],9.6
15,TGTGCCTATAAATTAACACACAGAAATATATAGAGA [CACACA_site818],9.34
16,TTATTCTGACAGAATTGTACTAATGTCTTTAAAAAA [XGTACX_site1256],8.72
17,TATTTGTTTGTTCGGGTGCTTACATATATTCTTATA [GTGCAC_site9972],9.65
18,TGTTGTAAATTAAAGACATGCACGTGAGAAAATATA [TGCATGCA_site285],9.51
19,AATTATATACATAAGTGTACATAATATATAAACATA [XGTACX_site793],9.12

row,Sequence,gcPBM binding intensity (ln)
1,TTTTCAATTAATAATACACACATGTATTTATTATTA [CACACA_site5774],9.38
2,TTTTCTATGCTAAACACACTCATTGTTACAAGTTTT [CACACA_site5531],9.28
3,TATATATATTTTATATGTACGTATGGAACAATATGA [XGTACX_site8167],9.23
4,TTATTTATTTTTTATACACACAATTATCATTTTAAG [CACACA_site22],9.45
5,ATTATATATATGTGCACACAAAAGATATATATATAT [CACACA_site5205],9.68
6,AAATAATTTACTTAATGTACATATATATATATATAT [XGTACX_site8594],9.34
7,ATATTTATTTGTTAGTGTACATACATATATATATAT [XGTACX_site1347],9.46
8,TTTTAATTTATTTATGCACACATATATAATTACACA [CACACA_site8126],9.4
9,AAAAATAAACAATATATAGTTATATATATATATATA [TGCATGCA_negctrl_site82],9.18
10,GAGAAATGGGGACACACACACATATTATATATATAT [CACACA_site4943],10
11,AAGCACAAAAAATACACACACAAAAAATAAAAAAAG [CACACA_site1840],10.1
12,TATATGCATAATAACTGTACACAAATTGGGGTTGAT [XGTACX_site459],9.65
13,ATATAAATATATGTATGTACGCATGTATGTATCTAT [XGTACX_site3290],9.35
14,ATAATGAACAATATTATATATAAAATATAATTTATA [GTGCAC_negctrl_site564],9.08
15,ATGTATGTTTGTTATGCACACAAATGCATCTTATTT [CACACA_site8861],9.62
16,ATTATGTATACATAAACACACATATATATAAAAAAA [CACACA_site262],9.51
17,TTTGTTCTTTTAATGTGTACATATACACTTGTAATA [XGTACX_site2635],9.23
18,ATGTATGCAAAAATGGTGCATATTAAATGTATAACA [GTGCAC_site9722],9.34
19,AAAAAAAAAAGAAACACACACATTTGTCTATAATAT [CACACA_site7063],9.83

row,Sequence,gcPBM binding intensity (ln)
1,TGACCTTATGTGTTTTGAAGGGGAAAGGAAATGCGC [XGTACX_negctrl_site411],9.07
2,TATAAAAATAGGATTTGTACATATAAAAAAGGAAAA [XGTACX_site8678],9.3
3,TATAAATATATGTATGCACACATTTTTTTTGGAAAA [CACACA_site1070],9.17
4,CAGAAATAGAGATACACACACACATATATTTATGTA [CACACA_site3968],10.2
5,TAATATAAAAAAGGTACTACACGAAGGAATAAAAAT [XGTACX_site6872],9.87
6,ATAAAGAAATAAAGTTGTACATTATATATATATATA [XGTACX_site7729],9.25
7,TGTTTAAAAATAATTTGTACATATATTTTATTTCAT [XGTACX_site1272],9.13
8,AATAATTTTTTAAACACACACACATATATATATATA [CACACA_site95],9.74
9,AATACATACGGACACACACACACATATATATATATA [CACACA_site5884],10.2
10,TCTTTTGTTTAACCTACATGCAGAATATAAGTCTTC [TGCATGCA_site99],9.12
11,ATTCATTATTCACCTTGTACACAAATGATTATCGTA [XGTACX_site455],9.35
12,TTAACAAAATTTTTAACACACAAAAAAAAAAAAAAA [CACACA_site1828],8.97
13,ATGTAGACAACATATGAACACACAAAATATTTTTTT [CACACA_site8955],9.62
14,CCAAAATTTATAAATTGTACATATTTTTAAATTCTT [XGTACX_site833],9.03
15,ATAAAAGAATTAAATAATCAAAATGATTATTTTATA [CACACA_negctrl_site466],8.8
16,GATAAATAATAATAAGGTACACATAAAATATTCCTT [XGTACX_site2963],9.3
17,GGTATAATTCATATAACACACATTTCAATGTTAAAA [CACACA_site2172],9.28
18,TGTATTAATTTGTAATGTACACATATATGTATTATA [XGTACX_site4152],9.23
